From publication PMC4336329 (PLoS ONE, 2015)
In all, about 310,000 compounds went through this assay and about 14,000 (4.5%) showed an effect of 50% or more. Effects have a minus sign here. The list shows a part of the results.

Each compound was assayed against human ether-à-go-go-related gene (hERG) potassium channel (human, UniProt Q12809) (assay: primary screen, population patch clamp on CHO cells stably expressing hERG).
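Also: peak tail current of the secondary pulse compared with the same well before compound.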

Sequence of human ether-à-go-go-related gene (hERG) potassium channel (Q12809 whole entry, looked up): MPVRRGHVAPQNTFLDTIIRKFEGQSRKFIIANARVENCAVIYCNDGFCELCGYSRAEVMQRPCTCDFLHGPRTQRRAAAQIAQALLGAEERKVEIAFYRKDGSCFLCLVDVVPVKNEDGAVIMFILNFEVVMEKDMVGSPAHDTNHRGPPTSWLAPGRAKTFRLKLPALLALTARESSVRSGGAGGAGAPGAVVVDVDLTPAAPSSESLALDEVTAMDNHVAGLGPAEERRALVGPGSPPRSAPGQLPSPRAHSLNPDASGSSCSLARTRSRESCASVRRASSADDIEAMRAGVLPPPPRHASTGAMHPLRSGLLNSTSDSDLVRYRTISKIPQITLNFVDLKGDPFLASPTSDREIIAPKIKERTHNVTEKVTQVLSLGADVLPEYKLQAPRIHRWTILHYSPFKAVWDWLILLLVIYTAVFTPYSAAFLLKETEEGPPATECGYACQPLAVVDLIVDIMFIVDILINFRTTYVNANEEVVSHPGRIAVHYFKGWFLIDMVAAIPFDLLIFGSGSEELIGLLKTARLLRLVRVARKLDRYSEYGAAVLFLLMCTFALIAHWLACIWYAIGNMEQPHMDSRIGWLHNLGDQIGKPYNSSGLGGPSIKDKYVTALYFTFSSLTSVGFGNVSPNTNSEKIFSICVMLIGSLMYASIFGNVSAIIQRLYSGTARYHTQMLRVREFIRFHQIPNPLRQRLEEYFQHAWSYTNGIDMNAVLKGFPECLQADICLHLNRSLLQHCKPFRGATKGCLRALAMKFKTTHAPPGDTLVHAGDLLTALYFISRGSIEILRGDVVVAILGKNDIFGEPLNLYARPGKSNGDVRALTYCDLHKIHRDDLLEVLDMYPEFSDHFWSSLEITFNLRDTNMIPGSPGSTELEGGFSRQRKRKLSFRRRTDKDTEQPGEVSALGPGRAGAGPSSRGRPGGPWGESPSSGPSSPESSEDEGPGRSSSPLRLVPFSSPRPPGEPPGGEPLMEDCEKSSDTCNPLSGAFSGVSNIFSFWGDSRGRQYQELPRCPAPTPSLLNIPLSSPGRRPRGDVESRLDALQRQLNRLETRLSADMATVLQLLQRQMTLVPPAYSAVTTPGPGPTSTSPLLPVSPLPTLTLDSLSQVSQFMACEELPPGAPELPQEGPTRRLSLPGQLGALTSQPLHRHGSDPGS

Row | SMILES | hERG current change (%, negative = inhibition) at 10uM [%]
1 | COc1ccc(/C=C/C(=O)c2c(O)ccc3c(C)cc(=O)oc23)cc1 | -8.25
2 | Cc1c(C(=O)NNS(=O)(=O)c2ccccc2Cl)sc(=S)n1C | 3.32
3 | CC/C=C/C(=O)N1CC2(CC(c3cccc(NC(=O)CCCCC)c3)=NO2)C[C@H]1C(N)=O (stereo partly shown) | -3.68
4 | Cc1ccc(Cl)c(OCCCCN(C)Cc2ccccc2)c1.O=C(O)C(=O)O | -43.8
5 | COc1ccc(OC)c(NC(=O)CSc2nnc3ccc(-c4ccncc4)nn23)c1 | -48.7
6 | CCc1noc(C)c1C(=O)Nc1ccc(S(=O)(=O)N2CCCCC2)cc1 | -7.54
7 | O=C(c1ccc(NS(=O)(=O)c2ccc(Cl)cc2)cc1)N1CCOCC1 | 3.98
8 | Cc1ccc(C)c(CSC2=NN3CCCC(=O)N=C3S2)c1 | -35.1
9 | O=C(NC1CCCCC1)N1CCCC(c2nc(-c3ccc(S(=O)(=O)N4CCCC4)cc3)no2)C1 (stereo not shown) | 2.14
10 | Cc1ccc(C(=O)NCC(c2ccco2)N2CCc3ccccc32)cc1 (stereo not shown) | -13
11 | CC(=O)Nc1ccc(NC(=O)c2c(C)nn(-c3ccccc3)c2Cl)cc1C | 10
12 | C=CCn1c(O)c(N=NC(=O)c2cccnc2)c2cc(Br)ccc21 | -16.1
13 | O=C1c2ccccc2NC(c2ccccc2)N1CCCN1CCOCC1 (stereo not shown) | -7.32
14 | CCn1c(SCC(=O)Nc2ccc(C)cc2)nc2nc3c(cc2c1=O)CCCC3 | -43.6
15 | CCOC(=O)C1=C(C)NC(SCC(N)=O)=C(C#N)C1c1ccccc1 (stereo not shown) | -5.21
16 | Cc1cccc(C(=O)NCC(=O)OCC(=O)NCCNC(=O)COC(=O)CNC(=O)c2cccc(C)c2)c1 | 20.6
17 | COc1ccccc1/C=N/NC(=O)c1ccccc1Cl | 10
18 | CCOC(=O)c1sc(/N=C/N(C)C)c(C(=O)OCC)c1C | -9.05
19 | COc1ccc(S(=O)(=O)N2CCCCC2)cc1NC(=O)CN1C(=O)NC(C)(C2CC2)C1=O (stereo not shown) | -9.15
20 | O=C1C(Cl)=C(NCCN2CCOCC2)C(=O)c2ccccc21 | -7.64
21 | Cc1cccc(CCNC(=O)CCCOc2cc(=O)n(C)c3ccccc23)c1 | -37.2
22 | O=C(c1ccc([N+](=O)[O-])cc1)N1CCC(Cc2ccccc2)CC1 | -73.4

Row | SMILES | hERG current change (%, negative = inhibition) at 10uM [%]
23 | COc1ccc(Br)cc1-c1nc(C)c(C(C)=O)n1O | 19.4
24 | Nn1c(SCC(=O)NC(=O)NCc2ccccc2)nnc1C1CC1 | 13.3
25 | CC(OC(=O)Cn1cnc2c1c(=O)n(C)c(=O)n2C)C(=O)N(C)c1ccccc1 (stereo not shown) | 16.3
26 | O=C(CSc1nc2c(cnn2-c2ccc(F)cc2)c(=O)[nH]1)N1CCCc2ccccc21 | 10.1
27 | Cc1nn(CCCC(=O)N2CCN(c3ccc(F)cc3)CC2)c(C)c1[N+](=O)[O-] | -62.1
28 | CCc1noc(C)c1C(=O)NNC(=O)c1cc(OC)c(OC)c(OC)c1 | -4.26
29 | CC(Sc1ccccc1)C(=O)NN=C1CCCCCC1 (stereo not shown) | 2.77
30 | CCOc1ccc(C(=O)Nc2c3c(nn2-c2ccccc2)CS(=O)(=O)C3)cc1 | 4.84
31 | O=C(Nc1cccc(S(=O)(=O)c2cccc(NC(=O)c3ccco3)c2)c1)c1ccco1 | -30.6
32 | CCCCNC(=O)CCn1c(=O)c2ccccc2n(CC(=O)N2CC(C)CC(C)C2)c1=O (stereo not shown) | -9.48
33 | O=[N+]([O-])c1ccc(N2CCN(c3ccccn3)CC2)c(Cl)c1 | 0.0809
34 | COc1ccc(F)cc1S(=O)(=O)NCC(c1ccco1)N1CCc2ccccc2C1 (stereo not shown) | -30.4
35 | CC(=O)NC1=NN(C(C)=O)C(c2cccc([N+](=O)[O-])c2)S1 (stereo not shown) | 6.1
36 | Cn1nc(C(=O)OCC(=O)N2CCc3ccccc32)c2ccccc2c1=O | -32.9
37 | COc1ccc(C=O)cc1Cn1ccnc1C.Cl | 33.4
38 | O=C(NCc1ccc(Cl)s1)c1cc(COc2c(F)cccc2F)on1 | 5.08
39 | CN(C(=O)COC(=O)c1ccccc1C(=O)N1CCN(c2ccccc2)CC1)c1ccccc1 | -17
40 | CCCCOc1ccc(CON(C(C)=O)C(C)=O)cc1Cl | 4.67
41 | CC(=O)NC(=S)Nc1cccc([N+](=O)[O-])c1 | -2.27
42 | CCCCn1nc2cc(C(=O)NCc3ccc(OC)cc3)ccc2c1OCC | -12.3
43 | C=CCc1cccc(CNc2nc3ccccc3n2C)c1O | 7.54
44 | Cc1ccc2c(c1)c1ncnc(N3CCN(c4ccccc4)CC3)c1n2C | -12.3

Row | SMILES | hERG current change (%, negative = inhibition) at 10uM [%]
45 | COc1cc([C@H]2c3c(cc(OC)c(O)c3OC)C[C@@H](CO)[C@@H]2CO[C@@H]2O[C@H](CO)[C@@H](O)[C@H](O)[C@H]2O)cc(OC)c1O | -16.9
46 | Cc1cccc(NC(=O)CCCn2cc([N+](=O)[O-])cn2)n1 | -11.1
47 | Cl.N=c1sccn1CC(=O)Nc1cccc2ccccc12 | 2.9
48 | COCCN(CCOC)S(=O)(=O)c1ccc(C(=O)Nc2nnc(COC)o2)cc1 | 18.3
49 | O=C(CC1CCCCC1)NCc1ccccn1 | 2.73
50 | COc1cccc(N(CC(=O)NCCSCc2ccc(Cl)cc2)S(C)(=O)=O)c1 | 2.15
51 | CC(C)(C)NC(=O)CCc1nnc(Cc2c[nH]c3ccccc23)o1 | 1.86
52 | Cc1ccc(NC(=O)C(=O)NCC2CCCN2S(=O)(=O)c2cccs2)c(C)c1 (stereo not shown) | -26.9
53 | Cc1cc(NC(=O)CSc2nc3c(C)ccc(C)c3cc2C#N)no1 | 15.9
54 | CCN(C(=O)CSc1nnnn1-c1ccccc1)C1CCS(=O)(=O)C1 (stereo not shown) | -0.858
55 | O=C1CN(C(=O)COC(=O)C2CCN(S(=O)(=O)c3ccccc3C(F)(F)F)CC2)c2ccccc2N1 | -23.2
56 | COc1ccc(S(=O)(=O)N2CCCC(C(=O)NCc3cccnc3)C2)cc1 (stereo not shown) | -18.3
57 | COc1ccc(CCNC(=O)CCNC(=O)c2ccco2)cc1 | 2.58
58 | Cc1ccccc1OCCC(=O)N(CC(C)C)c1c(N)n(Cc2ccccc2)c(=O)[nH]c1=O | -64.4
59 | CCN1CCN(c2nc(C)c3c(n2)CC(C)CC3=O)CC1 (stereo not shown) | 12.8
60 | O=C(NCc1ccco1)c1cc([N+](=O)[O-])ccc1N1CCOCC1 | -25.4
61 | CCc1cc2ccc(C)cc2nc1SCC(=O)Nc1c[nH]c(=O)[nH]c1=O | 17.1
62 | CC1(c2nnc(Cc3ccccc3)o2)CC(c2ccc(Br)cc2)=NO1 (stereo not shown) | 10.1
63 | CC(C)NS(=O)(=O)c1ccc(OCC(=O)N(C)Cc2ccccc2)cc1 | -9.49
64 | CCOc1ccc(NC(=O)CN(C)C(=O)C(C)N2C(=O)c3ccccc3C2=O)cc1OCC (stereo not shown) | -15.9
65 | C/C(CC(=O)NC12CC3CC(CC(C3)C1)C2)=N\NC(=O)c1cnccn1 | 11.9
66 | COS(=O)(=O)[O-].Cn1c(-c2ccc3ccccc3n2)[n+](C)c2ccccc21 | 6.5

Row | SMILES | hERG current change (%, negative = inhibition) at 10uM [%]
67 | CN(C)c1ccc(/C=C/c2nnnn2-c2ccccc2)cc1 | -1.34
68 | COc1ccc(OCC(=O)NCCC2=CCCCC2)c([N+](=O)[O-])c1 | -10.7
69 | CC(C)Cc1nc(N2CCOCC2)c(C#N)c2c1CCC2 | -2.57
70 | CC(C)NC(=O)NC(=O)CN1C(=O)NC(Cc2c[nH]c3ccccc23)C1=O (stereo not shown) | 31.3
71 | NC(=O)[C@@H]1CCCNc2c(F)cc([N+](=O)[O-])cc2C(=O)N[C@@H](CO)C(=O)N[C@@H](Cc2ccc(O)cc2)C(=O)N1 | -3.66
72 | Cc1ccccc1-c1nnc(SCC(=O)NC2CCCC2)o1 | -6.58
73 | COc1ccc(NC(=O)CN(C)C(=O)c2cccc(Oc3ccccc3)c2)cc1 | -18.4
74 | Cc1ccc(-c2nc3cnccn3c2Nc2ccc3c(c2)OCCO3)o1 | -23.8
75 | COc1ccc2nnc(-c3ccccc3)n2n1 | -20.4
76 | CC(=O)Nc1ccc(/C=N/N2CCCCC2)cc1 | 16.5
77 | CC(c1ccccc1)C1NC(C(=O)O)CS1 (stereo not shown) | -17.3
78 | NCCCCCc1nnc(SCC(=O)c2ccc(Cl)cc2)o1 | -14.5
79 | O=C(NCc1cccnc1)c1ccc(COc2ccccc2Cl)cc1 | 4.47
80 | Cc1ccc2nc(SCC(=O)Nc3ccc4c(c3)OCO4)nc(=O)n2c1 | 16
81 | Cc1ccc(C)n1-c1ccc(C(=O)Nc2ccccc2F)cc1 | -6.46
82 | CC(=O)c1cccc(N(C(=O)c2ccco2)C(C(=O)NC2CCCCC2)c2ccc(C)o2)c1 (stereo not shown) | -21.6
83 | COC(=O)C1=C[C@@H](C(=O)OC)[C@@H]2C3=C(C(=O)C2(C)C)[C@H](C)n2c(=O)n(-c4ccccc4)c(=O)n2[C@@H]3C1 | 8.48
84 | Cc1ccc(CNc2nc(N)c([N+](=O)[O-])c(NCCO)n2)cc1 | -9.64
85 | CC1CN(CCOCCOc2ccccc2-c2ccccc2)CC(C)O1.O=C(O)C(=O)O (stereo not shown) | -13.5
